Experimental data: the supplement of paper PMC8728848
Some of the results follow.

What was measured:
Assay in all cases: glycan array binding signal (z-score within array); higher = stronger binding
Details in all cases: glycan notation: IUPAC condensed, linker removed
Gal(b1-2)Gal = target: Gal(b1-2)Gal
Procedure, shortened: (§1)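 Glycan array data came from 3228 arrays in the Consortium for Functional Glycomics database, and only arrays with an available protein sequence were kept. Glycan names were put into IUPAC-condensed notation, and columns mapping to the same glycan were averaged. The binding signal is a within-array Z-score, averaged across arrays of one protein sequence run at different concentrations or buffers and across linkers. A negative Z-score can be read as non-binding.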

Gal(b1-3)Gal = target: Gal(b1-3)Gal
Procedure, shortened: as §1

Gal(b1-3)Gal(b1-4)GlcNAc = target: Gal(b1-3)Gal(b1-4)GlcNAc
Procedure, shortened: as §1

Gal(b1-3)GalNAc = target: Gal(b1-3)GalNAc
Procedure, shortened: as §1

[1] = target: Gal(b1-3)GalNAc(a1-3)[Fuc(a1-2)]Gal(b1-4)Glc
Procedure, shortened: as §1

[2] = target: Gal(b1-3)GalNAc(a1-3)[Fuc(a1-2)]Gal(b1-4)GlcNAc
Procedure, shortened: as §1

Gal(b1-3)GalNAc(b1-3)Gal = target: Gal(b1-3)GalNAc(b1-3)Gal
Procedure, shortened: as §1

[3] = target: Gal(b1-3)GalNAc(b1-3)Gal(a1-4)Gal(b1-4)Glc
Procedure, shortened: as §1

[4] = target: Gal(b1-3)GalNAc(b1-4)Gal(b1-4)Glc
Procedure, shortened: as §1

[5] = target: Gal(b1-3)GalNAc(b1-4)[Neu5Ac(a2-3)]Gal(b1-4)Glc
Procedure, shortened: as §1

Gal(b1-3)GlcNAc = target: Gal(b1-3)GlcNAc
Procedure, shortened: as §1

[6] = target: Gal(b1-3)GlcNAc(a1-3)Gal(b1-4)GlcNAc
Procedure, shortened: as §1

[7] = target: Gal(b1-3)GlcNAc(a1-6)Gal(b1-4)GlcNAc
Procedure, shortened: as §1

Gal(b1-3)GlcNAc(b1-2)Man = target: Gal(b1-3)GlcNAc(b1-2)Man
Procedure, shortened: as §1

[8] = target: Gal(b1-3)GlcNAc(b1-2)Man(a1-3)[Gal(b1-3)GlcNAc(b1-2)Man(a1-6)]Man(b1-4)GlcNAc(b1-4)GlcNAc
Procedure, shortened: as §1

[9] = target: Gal(b1-3)GlcNAc(b1-2)Man(a1-3)[Gal(b1-3)GlcNAc(b1-2)Man(a1-6)]Man(b1-4)GlcNAc(b1-4)[Fuc(a1-6)]GlcNAc
Procedure, shortened: as §1

[10] = target: Gal(b1-3)GlcNAc(b1-2)Man(a1-3)[GlcNAc(b1-4)][Gal(b1-3)GlcNAc(b1-2)Man(a1-6)]Man(b1-4)GlcNAc(b1-4)GlcNAc
Procedure, shortened: as §1

[11] = target: Gal(b1-3)GlcNAc(b1-2)[Gal(b1-3)GlcNAc(b1-6)]Man(a1-6)[Gal(b1-3)GlcNAc(b1-2)Man(a1-3)]Man(b1-4)GlcNAc(b1-4)GlcNAc
Procedure, shortened: as §1

[12] = target: Gal(b1-3)GlcNAc(b1-3)Gal(b1-3)GlcNAc
Procedure, shortened: as §1

[13] = target: Gal(b1-3)GlcNAc(b1-3)Gal(b1-4)Glc
Procedure, shortened: as §1

[14] = target: Gal(b1-3)GlcNAc(b1-3)Gal(b1-4)GlcNAc
Procedure, shortened: as §1

[15] = target: Gal(b1-3)GlcNAc(b1-3)Gal(b1-4)GlcNAc(b1-2)Man(a1-3)[Gal(b1-3)GlcNAc(b1-3)Gal(b1-4)GlcNAc(b1-2)Man(a1-6)]Man(b1-4)GlcNAc(b1-4)GlcNAc
Procedure, shortened: as §1

[16] = target: Gal(b1-3)GlcNAc(b1-3)Gal(b1-4)GlcNAc(b1-2)[Gal(b1-3)GlcNAc(b1-3)Gal(b1-4)GlcNAc(b1-6)]Man(a1-6)[Gal(b1-3)GlcNAc(b1-3)Gal(b1-4)GlcNAc(b1-2)Man(a1-3)]Man(b1-4)GlcNAc(b1-4)[Fuc(a1-6)]GlcNAc
Procedure, shortened: as §1

[17] = target: Gal(b1-3)GlcNAc(b1-3)Gal(b1-4)GlcNAc(b1-3)Gal(b1-4)GlcNAc(b1-2)[Gal(b1-3)GlcNAc(b1-3)Gal(b1-4)GlcNAc(b1-3)Gal(b1-4)GlcNAc(b1-6)]Man(a1-6)[Gal(b1-3)GlcNAc(b1-3)Gal(b1-4)GlcNAc(b1-3)Gal(b1-4)GlcNAc(b1-2)Man(a1-3)]Man(b1-4)GlcNAc(b1-4)[Fuc(a1-6)]GlcNAc
Procedure, shortened: as §1

[18] = target: Gal(b1-3)GlcNAc(b1-3)Gal(b1-4)GlcNAc(b1-6)[Gal(b1-3)GlcNAc(b1-3)]Gal(b1-4)Glc
Procedure, shortened: as §1

[19] = target: Gal(b1-3)GlcNAc(b1-3)Gal(b1-4)[Fuc(a1-3)]GlcNAc
Procedure, shortened: as §1

[20] = target: Gal(b1-3)GlcNAc(b1-3)Gal(b1-4)[Fuc(a1-3)]GlcNAc(b1-6)[Gal(b1-3)GlcNAc(b1-3)]Gal(b1-4)Glc
Procedure, shortened: as §1

[21] = target: Gal(b1-3)GlcNAc(b1-3)GalNAc
Procedure, shortened: as §1

[22] = target: Gal(b1-3)GlcNAc(b1-6)Gal(b1-4)GlcNAc
Procedure, shortened: as §1

[23] = target: Gal(b1-3)GlcNAc(b1-6)GalNAc
Procedure, shortened: as §1

[24] = target: Gal(b1-3)GlcNAc(b1-6)[Gal(b1-3)]GalNAc
Procedure, shortened: as §1

Gal(b1-3)GlcNAc6S = target: Gal(b1-3)GlcNAc6S
Procedure, shortened: as §1

[25] = target: Gal(b1-3)[Fuc(a1-4)]GlcNAc
Procedure, shortened: as §1

[26] = target: Gal(b1-3)[Fuc(a1-4)]GlcNAc(b1-2)Man
Procedure, shortened: as §1

[27] = target: Gal(b1-3)[Fuc(a1-4)]GlcNAc(b1-2)Man(a1-3)[Gal(b1-3)[Fuc(a1-4)]GlcNAc(b1-2)Man(a1-6)]Man(b1-4)GlcNAc(b1-4)[Fuc(a1-6)]GlcNAc
Procedure, shortened: as §1

[28] = target: Gal(b1-3)[Fuc(a1-4)]GlcNAc(b1-3)Gal(b1-3)[Fuc(a1-4)]GlcNAc
Procedure, shortened: as §1

[29] = target: Gal(b1-3)[Fuc(a1-4)]GlcNAc(b1-3)Gal(b1-4)[Fuc(a1-3)]GlcNAc
Procedure, shortened: as §1

[30] = target: Gal(b1-3)[Fuc(a1-4)]GlcNAc(b1-6)GalNAc
Procedure, shortened: as §1

[31] = target: Gal(b1-3)[GlcNAc(b1-6)]GalNAc
Procedure, shortened: as §1

[32] = target: Gal(b1-3)[Neu5Ac(a2-6)]GalNAc
Procedure, shortened: as §1

[33] = target: Gal(b1-3)[Neu5Ac(a2-6)]GlcNAc(b1-4)Gal(b1-4)Glc
Procedure, shortened: as §1

[34] = target: Gal(b1-3)[Neu5Ac(b2-6)]GalNAc
Procedure, shortened: as §1

Gal(b1-4)Gal = target: Gal(b1-4)Gal
Procedure, shortened: as §1

[35] = target: Gal(b1-4)GalNAc(a1-3)[Fuc(a1-2)]Gal(b1-4)GlcNAc
Procedure, shortened: as §1

[36] = target: Gal(b1-4)GalNAc(b1-3)[Fuc(a1-2)]Gal(b1-4)GlcNAc
Procedure, shortened: as §1

B1: PfulAvr4 2 (Pseudocercospora fuligena) (protein)
chain: HHHHHHDYKDDDDKAKPIKPFACPPKDFTTTKCQGPVDCLYANPLSCLGYIQCVCDDDACSTATPYAKSCPTGLAWVEKLKRCDGIKKSACPKKMYEGS
glycan array binding signal (z-score) (Gal(b1-2)Gal): 0.289
glycan array binding signal (z-score) (Gal(b1-3)Gal): 0.13
glycan array binding signal (z-score) (Gal(b1-3)Gal(b1-4)GlcNAc): -0.441
glycan array binding signal (z-score) (Gal(b1-3)GalNAc): -0.243
glycan array binding signal (z-score) [1]: -0.255
glycan array binding signal (z-score) [2]: -0.31
glycan array binding signal (z-score) (Gal(b1-3)GalNAc(b1-3)Gal): -0.173
glycan array binding signal (z-score) [3]: -0.108
glycan array binding signal (z-score) [4]: -0.022
glycan array binding signal (z-score) [5]: -0.201
glycan array binding signal (z-score) (Gal(b1-3)GlcNAc): 0.216
glycan array binding signal (z-score) [6]: -0.237
glycan array binding signal (z-score) [7]: -0.356
glycan array binding signal (z-score) (Gal(b1-3)GlcNAc(b1-2)Man): -0.279
glycan array binding signal (z-score) [8]: 2.62
glycan array binding signal (z-score) [9]: -0.024
glycan array binding signal (z-score) [10]: 8.86
glycan array binding signal (z-score) [11]: -0.063
glycan array binding signal (z-score) [12]: -0.133
glycan array binding signal (z-score) [13]: 0.144
glycan array binding signal (z-score) [14]: -0.311
glycan array binding signal (z-score) [15]: -0.361
glycan array binding signal (z-score) [16]: -0.218
glycan array binding signal (z-score) [17]: -0.201
glycan array binding signal (z-score) [18]: -0.07
glycan array binding signal (z-score) [19]: -0.315
glycan array binding signal (z-score) [20]: -0.352
glycan array binding signal (z-score) [21]: -0.436
glycan array binding signal (z-score) [22]: -0.11
glycan array binding signal (z-score) [23]: -0.399
glycan array binding signal (z-score) [24]: -0.351
glycan array binding signal (z-score) (Gal(b1-3)GlcNAc6S): -0.337
glycan array binding signal (z-score) [25]: -0.218
glycan array binding signal (z-score) [26]: 2.11
glycan array binding signal (z-score) [27]: 1.31
glycan array binding signal (z-score) [28]: -0.33
glycan array binding signal (z-score) [29]: -0.283
glycan array binding signal (z-score) [30]: -0.34
glycan array binding signal (z-score) [31]: -0.28
glycan array binding signal (z-score) [32]: -0.163
glycan array binding signal (z-score) [33]: -0.313
glycan array binding signal (z-score) [34]: -0.3
glycan array binding signal (z-score) (Gal(b1-4)Gal): -0.231
glycan array binding signal (z-score) [35]: -0.448
glycan array binding signal (z-score) [36]: -0.44
